Results taken from the supplement of paper PMC11125491.
± gives the standard deviation of the averaged measurements. Growth of baker's yeast expressing single-residue variants of Pneumocystis jirovecii dihydrofolate reductase in 8.8 or 44 µM methotrexate (about 75% and 90% inhibition of the wild type). Selection coefficient per generation; 0 = like wild type, above 0 = less sensitive, below 0 = more sensitive or loss of function. No active / inactive call per row; the paper calls resistant above 0.220 (8.8 µM) or 0.243 (44 µM) together with a significance test. At 44 µM about 15% of codons end with one read or none, so the lowest values are floors (replicate rank correlation 0.74; 0.94 at 8.8 µM).

B1: UniProt A0EPZ9; numbered along this chain (parent)
chain: MDWQKSLTLIVALTLSRGIGLKNDLPWKLKSDMMFFSRVTSGLLVTRSTGQMNVVLMGRKTWESLPAHSRPLKNRINVVISRQEVLDLGGGAYHARSLDDALALLSQIYDSTSKIQLNRVFVIGGGELCKAAMEHSRLNRIIATVIHNEVDCDVFFPIDFRSSQSCLPWRKQDHSVLEAWVGSKVPQGKINENGFIYEFEMWIRDI

Variants of: B1
Experiment: selection coefficient against synonymous wild-type codons (log2 per generation); higher = faster growth than wild type
Details: with Saccharomyces cerevisiae carrying the variant on a plasmid
Experimental: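 Pooled growth of yeast carrying single-residue variants of P. jirovecii dihydrofolate reductase (own DFR1 gene intact), two passages at 30 °C, three cultures, sequenced before and after. Codons with under 15 starting reads are left out; codons of one change are averaged.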

V54Y
selection coefficient against synonymous wild-type codons (log2) (methotrexate 8.8 µM): -0.527 ± 0.065 | selection coefficient against synonymous wild-type codons (log2) (methotrexate 44 µM): -0.321 ± 0.016

M57W
selection coefficient against synonymous wild-type codons (log2) (methotrexate 8.8 µM): -0.487 ± 0.059 | selection coefficient against synonymous wild-type codons (log2) (methotrexate 44 µM): -0.362 ± 0.061

M57A
selection coefficient against synonymous wild-type codons (log2) (methotrexate 8.8 µM): -0.48 ± 0.13 | selection coefficient against synonymous wild-type codons (log2) (methotrexate 44 µM): -0.274 ± 0.094

M57T
selection coefficient against synonymous wild-type codons (log2) (methotrexate 8.8 µM): -0.48 ± 0.15 | selection coefficient against synonymous wild-type codons (log2) (methotrexate 44 µM): -0.241 ± 0.1

M57V
selection coefficient against synonymous wild-type codons (log2) (methotrexate 8.8 µM): -0.481 ± 0.2 | selection coefficient against synonymous wild-type codons (log2) (methotrexate 44 µM): -0.254 ± 0.1

M57R
selection coefficient against synonymous wild-type codons (log2) (methotrexate 8.8 µM): -0.48 ± 0.1 | selection coefficient against synonymous wild-type codons (log2) (methotrexate 44 µM): -0.255 ± 0.051

M57I
selection coefficient against synonymous wild-type codons (log2) (methotrexate 8.8 µM): -0.253 ± 0.045 | selection coefficient against synonymous wild-type codons (log2) (methotrexate 44 µM): -0.275 ± 0.17

M57Y
selection coefficient against synonymous wild-type codons (log2) (methotrexate 8.8 µM): -0.0257 ± 0.051 | selection coefficient against synonymous wild-type codons (log2) (methotrexate 44 µM): 0.00717 ± 0.049

M57P
selection coefficient against synonymous wild-type codons (log2) (methotrexate 8.8 µM): -0.42 ± 0.029 | selection coefficient against synonymous wild-type codons (log2) (methotrexate 44 µM): -0.172 ± 0.029

M57N
selection coefficient against synonymous wild-type codons (log2) (methotrexate 8.8 µM): -0.518 ± 0.13 | selection coefficient against synonymous wild-type codons (log2) (methotrexate 44 µM): -0.312 ± 0.079

M57L
selection coefficient against synonymous wild-type codons (log2) (methotrexate 8.8 µM): -0.349 ± 0.12 | selection coefficient against synonymous wild-type codons (log2) (methotrexate 44 µM): -0.211 ± 0.098

M57D
selection coefficient against synonymous wild-type codons (log2) (methotrexate 8.8 µM): -0.593 ± 0.05 | selection coefficient against synonymous wild-type codons (log2) (methotrexate 44 µM): -0.261 ± 0.17

M57S
selection coefficient against synonymous wild-type codons (log2) (methotrexate 8.8 µM): -0.523 ± 0.086 | selection coefficient against synonymous wild-type codons (log2) (methotrexate 44 µM): -0.304 ± 0.053

M57F
selection coefficient against synonymous wild-type codons (log2) (methotrexate 8.8 µM): -0.155 ± 0.027 | selection coefficient against synonymous wild-type codons (log2) (methotrexate 44 µM): -0.117 ± 0.11

M57G
selection coefficient against synonymous wild-type codons (log2) (methotrexate 8.8 µM): -0.518 ± 0.048 | selection coefficient against synonymous wild-type codons (log2) (methotrexate 44 µM): -0.27 ± 0.054

M57H
selection coefficient against synonymous wild-type codons (log2) (methotrexate 8.8 µM): -0.396 ± 0.19 | selection coefficient against synonymous wild-type codons (log2) (methotrexate 44 µM): -0.191 ± 0.17

M57Q
selection coefficient against synonymous wild-type codons (log2) (methotrexate 8.8 µM): -0.517 ± 0.019 | selection coefficient against synonymous wild-type codons (log2) (methotrexate 44 µM): -0.227 ± 0.05

M57C
selection coefficient against synonymous wild-type codons (log2) (methotrexate 8.8 µM): -0.504 ± 0.049 | selection coefficient against synonymous wild-type codons (log2) (methotrexate 44 µM): -0.214 ± 0.14

M57E
selection coefficient against synonymous wild-type codons (log2) (methotrexate 8.8 µM): -0.503 ± 0.016 | selection coefficient against synonymous wild-type codons (log2) (methotrexate 44 µM): -0.213 ± 0.087

M57K
selection coefficient against synonymous wild-type codons (log2) (methotrexate 8.8 µM): -0.337 ± 0.1 | selection coefficient against synonymous wild-type codons (log2) (methotrexate 44 µM): -0.124 ± 0.051

P66A
selection coefficient against synonymous wild-type codons (log2) (methotrexate 8.8 µM): -0.0604 ± 0.054 | selection coefficient against synonymous wild-type codons (log2) (methotrexate 44 µM): -0.0455 ± 0.11

P66N
selection coefficient against synonymous wild-type codons (log2) (methotrexate 8.8 µM): -0.172 ± 0.032 | selection coefficient against synonymous wild-type codons (log2) (methotrexate 44 µM): -0.135 ± 0.087

P66D
selection coefficient against synonymous wild-type codons (log2) (methotrexate 8.8 µM): 0.0942 ± 0.027 | selection coefficient against synonymous wild-type codons (log2) (methotrexate 44 µM): 0.0457 ± 0.098

P66E
selection coefficient against synonymous wild-type codons (log2) (methotrexate 8.8 µM): -0.0799 ± 0.02 | selection coefficient against synonymous wild-type codons (log2) (methotrexate 44 µM): -0.203 ± 0.13

P66F
selection coefficient against synonymous wild-type codons (log2) (methotrexate 8.8 µM): -0.234 ± 0.25 | selection coefficient against synonymous wild-type codons (log2) (methotrexate 44 µM): -0.0407 ± 0.18

P66Q
selection coefficient against synonymous wild-type codons (log2) (methotrexate 8.8 µM): -0.112 ± 0.1 | selection coefficient against synonymous wild-type codons (log2) (methotrexate 44 µM): -0.101 ± 0.18

P66C
selection coefficient against synonymous wild-type codons (log2) (methotrexate 8.8 µM): -0.0933 ± 0.07 | selection coefficient against synonymous wild-type codons (log2) (methotrexate 44 µM): -0.0346 ± 0.11

P66H
selection coefficient against synonymous wild-type codons (log2) (methotrexate 8.8 µM): -0.24 ± 0.14 | selection coefficient against synonymous wild-type codons (log2) (methotrexate 44 µM): -0.183 ± 0.09

P66V
selection coefficient against synonymous wild-type codons (log2) (methotrexate 8.8 µM): -0.181 ± 0.098 | selection coefficient against synonymous wild-type codons (log2) (methotrexate 44 µM): -0.105 ± 0.11

P66T
selection coefficient against synonymous wild-type codons (log2) (methotrexate 8.8 µM): -0.246 ± 0.068 | selection coefficient against synonymous wild-type codons (log2) (methotrexate 44 µM): -0.175 ± 0.11

P66M
selection coefficient against synonymous wild-type codons (log2) (methotrexate 8.8 µM): -0.185 ± 0.12 | selection coefficient against synonymous wild-type codons (log2) (methotrexate 44 µM): -0.0842 ± 0.095

P66I
selection coefficient against synonymous wild-type codons (log2) (methotrexate 8.8 µM): -0.313 ± 0.16 | selection coefficient against synonymous wild-type codons (log2) (methotrexate 44 µM): -0.192 ± 0.015

P66S
selection coefficient against synonymous wild-type codons (log2) (methotrexate 8.8 µM): -0.139 ± 0.087 | selection coefficient against synonymous wild-type codons (log2) (methotrexate 44 µM): -0.0745 ± 0.15

P66G
selection coefficient against synonymous wild-type codons (log2) (methotrexate 8.8 µM): -0.0404 ± 0.053 | selection coefficient against synonymous wild-type codons (log2) (methotrexate 44 µM): -0.122 ± 0.079

P66K
selection coefficient against synonymous wild-type codons (log2) (methotrexate 8.8 µM): -0.0231 ± 0.048 | selection coefficient against synonymous wild-type codons (log2) (methotrexate 44 µM): -0.109 ± 0.11

P66Y
selection coefficient against synonymous wild-type codons (log2) (methotrexate 8.8 µM): -0.14 ± 0.11 | selection coefficient against synonymous wild-type codons (log2) (methotrexate 44 µM): -0.012 ± 0.11

P66L
selection coefficient against synonymous wild-type codons (log2) (methotrexate 8.8 µM): -0.321 ± 0.13 | selection coefficient against synonymous wild-type codons (log2) (methotrexate 44 µM): -0.155 ± 0.12

P66W
selection coefficient against synonymous wild-type codons (log2) (methotrexate 8.8 µM): -0.431 ± 0.085 | selection coefficient against synonymous wild-type codons (log2) (methotrexate 44 µM): -0.292 ± 0.036

P66R
selection coefficient against synonymous wild-type codons (log2) (methotrexate 8.8 µM): -0.115 ± 0.1 | selection coefficient against synonymous wild-type codons (log2) (methotrexate 44 µM): -0.133 ± 0.13

L65W
selection coefficient against synonymous wild-type codons (log2) (methotrexate 8.8 µM): -0.166 ± 0.031 | selection coefficient against synonymous wild-type codons (log2) (methotrexate 44 µM): -0.0921 ± 0.16

L65R
selection coefficient against synonymous wild-type codons (log2) (methotrexate 8.8 µM): -0.281 ± 0.091 | selection coefficient against synonymous wild-type codons (log2) (methotrexate 44 µM): -0.189 ± 0.12

L65M
selection coefficient against synonymous wild-type codons (log2) (methotrexate 8.8 µM): 0.00928 ± 0.077 | selection coefficient against synonymous wild-type codons (log2) (methotrexate 44 µM): 0.0888 ± 0.073

L65V
selection coefficient against synonymous wild-type codons (log2) (methotrexate 8.8 µM): -0.477 ± 0.098 | selection coefficient against synonymous wild-type codons (log2) (methotrexate 44 µM): -0.314 ± 0.13

L65H
selection coefficient against synonymous wild-type codons (log2) (methotrexate 8.8 µM): -0.138 ± 0.063 | selection coefficient against synonymous wild-type codons (log2) (methotrexate 44 µM): -0.0327 ± 0.052

L65T
selection coefficient against synonymous wild-type codons (log2) (methotrexate 8.8 µM): -0.295 ± 0.13 | selection coefficient against synonymous wild-type codons (log2) (methotrexate 44 µM): -0.214 ± 0.047

L65Q
selection coefficient against synonymous wild-type codons (log2) (methotrexate 8.8 µM): 0.0557 ± 0.058 | selection coefficient against synonymous wild-type codons (log2) (methotrexate 44 µM): 0.059 ± 0.13

L65S
selection coefficient against synonymous wild-type codons (log2) (methotrexate 8.8 µM): -0.342 ± 0.14 | selection coefficient against synonymous wild-type codons (log2) (methotrexate 44 µM): -0.165 ± 0.1

L65K
selection coefficient against synonymous wild-type codons (log2) (methotrexate 8.8 µM): -0.436 ± 0.18 | selection coefficient against synonymous wild-type codons (log2) (methotrexate 44 µM): -0.243 ± 0.084

L65I
selection coefficient against synonymous wild-type codons (log2) (methotrexate 8.8 µM): -0.177 ± 0.082 | selection coefficient against synonymous wild-type codons (log2) (methotrexate 44 µM): -0.121 ± 0.039

L65N
selection coefficient against synonymous wild-type codons (log2) (methotrexate 8.8 µM): -0.0445 ± 0.078 | selection coefficient against synonymous wild-type codons (log2) (methotrexate 44 µM): -0.0499 ± 0.09

L65P
selection coefficient against synonymous wild-type codons (log2) (methotrexate 8.8 µM): -0.352 ± 0.047 | selection coefficient against synonymous wild-type codons (log2) (methotrexate 44 µM): -0.168 ± 0.058

L65Y
selection coefficient against synonymous wild-type codons (log2) (methotrexate 8.8 µM): 0.0817 ± 0.026 | selection coefficient against synonymous wild-type codons (log2) (methotrexate 44 µM): 0.188 ± 0.061

L65A
selection coefficient against synonymous wild-type codons (log2) (methotrexate 8.8 µM): -0.339 ± 0.14 | selection coefficient against synonymous wild-type codons (log2) (methotrexate 44 µM): -0.2 ± 0.1

L65E
selection coefficient against synonymous wild-type codons (log2) (methotrexate 8.8 µM): -0.16 ± 0.028 | selection coefficient against synonymous wild-type codons (log2) (methotrexate 44 µM): -0.245 ± 0.15

L65G
selection coefficient against synonymous wild-type codons (log2) (methotrexate 8.8 µM): -0.228 ± 0.045 | selection coefficient against synonymous wild-type codons (log2) (methotrexate 44 µM): -0.129 ± 0.072

L65F
selection coefficient against synonymous wild-type codons (log2) (methotrexate 8.8 µM): 0.132 ± 0.048 | selection coefficient against synonymous wild-type codons (log2) (methotrexate 44 µM): 0.201 ± 0.047

L65D
selection coefficient against synonymous wild-type codons (log2) (methotrexate 8.8 µM): -0.385 ± 0.22 | selection coefficient against synonymous wild-type codons (log2) (methotrexate 44 µM): -0.0381 ± 0.087

L65C
selection coefficient against synonymous wild-type codons (log2) (methotrexate 8.8 µM): -0.261 ± 0.048 | selection coefficient against synonymous wild-type codons (log2) (methotrexate 44 µM): -0.225 ± 0.15
